From PubChem BioAssay AID493014 (National Center for Advancing Translational Sciences (NCATS), 2011)
About 170 (0.05%) of roughly 340,000 compounds were called active. Inconclusive results (about 26%) are left out. The call rests on the fitted dose curve; in most records, active means well fitted inhibition curve with a large enough effect in the signal ratio, with a control signal flat (not every such curve was filed as active); inconclusive means small, poorly fitted or top-dose-only effect, or effect the other way, or a change in a side signal; inactive means flat fitted curve, though single readings scatter; the % refers to the signal ratio. This is a selection; strong and weak results do not stand in their true shares.

assay: qHTS Assay to Find Inhibitors of Chronic Active B-Cell Receptor Signaling; conditions: ABC-DLBCL IkBa-CBG/CBR reporter, luminescence ratio (green luciferase fused to IkBa over red control in TMD8 lymphoma cells), 4 h; series mostly up to 46.1 µM; activity change, negative = inhibition: at the top concentration;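 on activity change, negative = inhibition: plate controls were basal doxycycline-induced cells for no effect and cells given 10 µM MG132 for full effect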
Method in brief: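 Doxycycline induced both beetle luciferases in TMD8 lymphoma cells; IKK-driven degradation limits the IkappaBalpha-fused green signal, while red luminescence normalises for cell number and nonspecific effects. Compounds tested up to 46 uM, 4 hrs.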
Potency means the concentration at half of the fitted maximal effect.

Compound | activity change, negative = inhibition | Potency
O=C(CCCN1C(=O)/C(=C/c2cccs2)SC1=S)Nc1cccnc1 | inactive: -13.8% | 
COC(=O)C1=C(C)N(Cc2ccccc2)C(=NCCN2CCOCC2)N[C@H]1CCc1ccccc1 | inactive: 9.5% | 
CC1OC(OCC2OC(Oc3c(-c4ccc(O)cc4)oc4cc(O)cc(O)c4c3=O)C(O)C(O)C2O)C(O)C(O)C1O (configuration not stated) | inactive: -19.4% | 
CCS(=O)(=O)NCC(c1ccco1)N1CCN(c2ccccc2)CC1 (configuration not stated) | inactive: -9.63% | 
C=CC[C@@H](CC(=O)N(CCO)Cc1ccccc1)C(=O)N[C@@H](C)COC(=O)[C@@H](CC=C)Cc1ccc(F)cc1 | inactive: -4.6% | 
Cc1ccc(CNC(=O)c2c(Nc3ccccc3C)sc(C(=O)c3ccc(F)cc3)c2N)cc1 |  | active: 22.4 µM
C#CCNC(=O)C1=C[C@@H](c2cn(C(C)=O)c3ccccc23)C[C@@H](OCc2ccc(CO)cc2)O1 | inactive: 11.8% | 
O=C(O)/C=C\C(=O)NCc1ccccc1 | inactive: -5.63% | 
CC1=CC(C)(C)N(S(=O)(=O)c2ccc(C)cc2)c2ccccc21 |  | active: 23.1 µM
Fc1ccc(SCCc2ccccn2)cc1 | inactive: -3.64% | 
COc1ccc(CCN2CC(C(=O)NCCc3ccccc3)CC2=O)cc1OC (configuration not stated) | inactive: 0.2% | 
O=C1NCCOC(=O)[C@@H](Cc2ccc(F)cc2)C/C=C\C[C@@H]1CC(=O)N(CCO)Cc1ccccc1 | inactive: -0.0053% | 
COCCCC/C(=N\OCCN)c1ccc(C(F)(F)F)cc1 |  | inactive
O=C(O)/C=C\C(=O)Nc1ccc(Oc2ccccc2)cc1 | inactive: 3.48% | 
O=C1N[C@@H](Cc2ccccc2)COC(=O)[C@H](Cc2ccc(F)cc2)C/C=C\C[C@@H]1CC(=O)N(CCO)Cc1ccccc1 | inactive: 1.72% | 
CCO[C@H]1OC(C(=O)Nc2ccccc2)=C[C@@H](C2CC2)[C@@H]1CCCO | inactive: 20% | 
C=C(C)[C@H]1CC=C(C)/C(=N/NC(=O)CNc2ccccc2OC)C1 | inactive: -0.619% | 
COC(C[C@@H]1O[C@H]1[C@@H](O)COCc1ccccc1)OC | inactive: -2.38% | 
C#CCNC(=O)C1=C[C@@H](c2coc3ccccc3c2=O)C[C@@H](OCCCCO)O1 | inactive: 10.2% | 
C/C=C(/C)C(=O)O[C@@H]1Cc2c(ccc3ccc(=O)oc23)OC1(C)C | inactive: -3.74% | 
O=c1cc(-c2ccccc2)[nH]c2ccccc12 |  | active: 11.2 µM
C=CCc1cc(OC)ccc1OCC(O)CN1CCN(c2ccc(OC)cc2)CC1 (configuration not stated) | inactive: -8.14% | 
O=C1CC[C@@H](C(=O)O)N1 | inactive: 0.189% | 
COC(C[C@H]1O[C@H]1[C@@H](O)[C@H](C)OCc1ccccc1)OC | inactive: 3.81% | 
C[C@@H]1CC[C@@]2(O[C@H](CCO)C[C@H](O)[C@H]2O)O1 | inactive: 0.937% | 
CCOC(=O)C1CCN(C(=O)c2ccc3c(=O)n4nc(Nc5cc(C)ccc5C)sc4nc3c2)CC1 | inactive: -13.3% | 
COc1ccc(CNC(=O)CN2C(=O)CSc3ccc(S(=O)(=O)N4CCOCC4)cc32)c(OC)c1 | inactive: 7.92% | 
